# From the supplement of paper PMC3334620
# Over roughly 33,000 sequences, “E-score (-0.5 to 0.5)” has its median near -0.035; the highest 2% begin near 0.34. This is one part of the list.
# Biological target: T1, Mot3 (UniProt P54785)
# T1 sequence: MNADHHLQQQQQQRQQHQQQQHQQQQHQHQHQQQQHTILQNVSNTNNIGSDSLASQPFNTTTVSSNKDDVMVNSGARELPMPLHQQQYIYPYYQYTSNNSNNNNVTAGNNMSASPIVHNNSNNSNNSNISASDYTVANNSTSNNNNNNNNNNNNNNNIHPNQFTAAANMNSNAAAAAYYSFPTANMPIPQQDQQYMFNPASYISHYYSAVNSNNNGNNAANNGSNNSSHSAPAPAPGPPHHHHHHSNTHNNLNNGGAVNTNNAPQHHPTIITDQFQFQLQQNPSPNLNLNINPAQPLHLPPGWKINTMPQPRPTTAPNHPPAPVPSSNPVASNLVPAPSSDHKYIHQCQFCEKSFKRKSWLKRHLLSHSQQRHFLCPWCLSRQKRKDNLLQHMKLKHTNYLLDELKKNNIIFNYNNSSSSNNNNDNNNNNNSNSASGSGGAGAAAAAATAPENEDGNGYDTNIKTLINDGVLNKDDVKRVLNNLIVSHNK
# Assay: PBM E-score (8-mer binding enrichment) (E-score (-0.5 to 0.5)); higher = stronger / more preferred TF binding; most listed sequences are background and not binding sites
# Settings: protein concentration: 200 nM; construct: GST-full length
# In short: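 The E-score, a modified Wilcoxon-Mann-Whitney statistic, was computed by the Universal PBM Analysis Suite for every ungapped eight-base word pooled with its reverse complement. Scans behind it were normalised with masliner after bound GST-tagged yeast transcription factors were detected with fluorescent anti-GST. The proteins, at about 100-200 nM, had been applied to universal all-10-mer Agilent arrays made double-stranded by primer extension.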
row,Sequence,PBM E-score
1,CACCGATA,0.0481
2,ATCTCAGA,-0.0385
3,CCCTTCAG,-0.0368
4,AGTTATGG,-0.14
5,CTTTCTGA,0.136
6,AACTTGAA,0.102
7,AATCCGCT,-0.247
8,GCACAGGA,0.117
9,GTCAAAGA,0.07
10,AAATCACC,0.0456
11,CGTCGGCA,-0.106
12,CGTCGCAA,-0.149
13,CCCTGCGA,-0.212
14,CCTACCAA,0.106
15,AGGGTGCA,-0.219
16,CGGCGTGA,-0.216
17,AAGTATTC,-0.0349
18,AGAGTGCT,-0.0257
19,CTCGGTTC,-0.0147
20,CGGCGTTA,-0.0281
21,ATCATAAT,0.0295
22,AACGCCTT,0.249
23,CAGCTCAA,-0.103
24,ATTTGGCC,0.0203
25,GGATATAC,-0.0873

row,Sequence,PBM E-score
1,CATTCCGC,-0.146
2,ATAGACAG,0.0639
3,TACGTAGA,0.286
4,ACAGCTCA,0.041
5,CTCTACGC,0.188
6,CAGCCTAC,-0.0906
7,CCTCGCCG,-0.331
8,CGCGGGCA,0.063
9,AAGCGCTA,-0.126
10,AAGCGTAT,-0.0427
11,AATTAACT,0.0348
12,ACGGGCGC,0.0278
13,AAAACAAG,0.229
14,CGTGCGAG,-0.0346
15,AAAGTCAG,-0.0665
16,CGCATTAG,-0.254
17,CTTACGAC,-0.14
18,ACGCGTAC,0.25
19,GATACGCC,-0.144
20,CAAACTGC,-0.204
21,CAGTGTGG,-0.249
22,AGCACGTA,0.136
23,GCCCCTAA,-0.242
24,GCCCGAGC,-0.18
25,ATCGTTAC,-0.0096

row,Sequence,PBM E-score
1,TCACATAA,0.222
2,ACAATGTA,0.272
3,GAGAGTAA,0.0261
4,ATAGGTTG,-0.133
5,ACCACGCT,-0.0319
6,CAAGTATC,0.0414
7,ACATCGCA,0.156
8,CATCAGGC,0.238
9,GCTTCGTA,0.0147
10,ATATGCTG,-0.0858
11,CAAGATGC,0.0838
12,GCAATACA,0.265
13,CCCCCATA,-0.133
14,GCCCGTTA,-0.0937
15,AGTCACTA,0.121
16,ACGAGGTG,0.0347
17,ATAAAATC,0.00782
18,AGCCAGGG,-0.233
19,ACTGGATG,-0.0851
20,AATGCAGT,-0.0982
21,CCATGTGC,-0.00372
22,CCTGCGAC,-0.0871
23,CAGCAGCG,0.0445
24,CCACACCG,-0.0267
25,AGCCTCTC,-0.133

row,Sequence,PBM E-score
1,ACAGTTAT,0.0104
2,AGCTAGCA,-0.21
3,AGGTCGGG,-0.209
4,GACGCTCA,-0.19
5,GCAGAAGC,-0.268
6,AGTTTAAA,0.199
7,AGATGTTG,-0.102
8,ATGAGGGA,-0.183
9,GACCCCAA,-0.297
10,GGCCCAAA,-0.315
11,AAGACATG,0.2
12,CAGCGCAA,-0.0296
13,ATCATGAA,-0.0373
14,GAATGTGC,-0.0285
15,ACTGGACC,-0.199
16,AGATAAAC,0.0476
17,CAGTCCAG,-0.196
18,CGTAAGCA,-0.114
19,CTTGGGGC,-0.237
20,CGGGCCAG,-0.185
21,ACTCTTTC,-0.19
22,ATCTAGAA,-0.0569
23,CCTTCTGA,0.0882
24,AAAACCCA,0.15
25,GCTCGCAA,-0.0946

row,Sequence,PBM E-score
1,ACTGGGTG,-0.018
2,CCTCAGGA,-0.298
3,ACTCGATG,0.0894
4,CAGGCCTG,-0.079
5,CGCAGGGA,-0.253
6,GGATACGA,0.0163
7,ATAAGCCC,-0.204
8,ATATACGG,-0.0183
9,CCCCAAAA,-0.0747
10,CATCTAGG,-0.0321
11,CCTAATAA,0.0481
12,CTTCGTAA,0.223
13,ATGATAAA,0.0952
14,AAGTCGTC,-0.0843
15,CAACACAC,0.301
16,CTGCATTC,0.0843
17,AAAAAGGG,0.0646
18,AGGGAAAA,0.0226
19,AGAGGGTC,-0.157
20,AACTGGGA,-0.00456
21,GCTACCCA,-0.264
22,GACAGAGC,-0.123
23,AGTGTAGA,0.151
24,CGCAAGCG,-0.0916
25,GGTCGGAC,-0.231

row,Sequence,PBM E-score
1,TAGATCTA,0.114
2,ATATCAAA,-0.116
3,AGCCGTTC,-0.271
4,TACCCCTA,-0.0975
5,ATCGCTAA,-0.0133
6,CGAGGGCA,-0.117
7,GCACACGA,0.111
8,ATACAAAG,0.246
9,CACCTGTA,0.19
10,GGAGGCAC,0.474
11,ACTTACCG,0.133
12,AATCATTC,0.0809
13,ATCGGTGC,0.111
14,AACTCGCC,-0.0661
15,ACTAGACC,-0.112
16,ACACAACG,0.275
17,AAGGCATA,0.321
18,AAGGCAGT,-0.0323
19,GTGGGTCA,-0.172
20,AAGCCGTA,-0.0365
21,CTGCTAAG,-0.191
22,AGACCGAA,-0.103
23,GAATAGAA,0.0182
24,ACGTACGG,-0.163
25,GATATCGC,0.0283

row,Sequence,PBM E-score
1,ACGCATGG,-0.0183
2,AATCAGCT,0.0802
3,CGTGACGC,-0.00805
4,CAAACCCC,-0.0949
5,AACAGCGT,0.0789
6,CTGAGGCC,-0.214
7,TGCTAGAA,0.0762
8,GTCTCCTA,-0.102
9,GATCGGAA,-0.105
10,ATTAACTG,0.12
11,GATAATGC,0.0501
12,ACAAAGAA,0.23
13,GAATAAGC,-0.215
14,AGCCTTGA,0.0646
15,ATCGGTAA,-0.122
16,AGGCACAG,0.491
17,CAGACACA,0.0491
18,AGTTGCTA,0.149
19,CTAGGGTC,-0.0138
20,CACGGGCG,-0.101
21,TCACTCGA,-0.158
22,CGAGGCAA,0.318
